# From PubChem BioAssay AID686978 (National Center for Advancing Translational Sciences (NCATS), 2013)
# “And” between values parts separate entries of the source, which are not always exact repeats. Equal entries are not always repeated. The campaign covered roughly 420,000 compounds. About 64,000 (15%) were called active. Inconclusive means that the source gave no clear call. Such entries were picked first, then a sample of the others. Calls come from the whole dose curve; as a rule, active = well fitted inhibition curve with a large enough effect; inconclusive = small, poorly fitted or top-dose-only effect; inactive = flat fitted curve, though single readings scatter. Where the call is inconclusive, the potency comes from a doubtful curve fit.
# Assay: qHTS for Inhibitors of human tyrosyl-DNA phosphodiesterase 1 (TDP1): qHTS in cells in absence of CPT; note: nearly all actives have a fitted effect of over 55% in size
# Settings: DT40 Tdp1-/- hTDP1 cells, no CPT, ATP luminescence, 48 h; activity change, negative = growth inhibition: at 46.2 µM (top of the series) unless noted
# How it was run: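 No-CPT arm: Tdp1-/-;hTDP1 DT40 cells (400/well) plus compounds, incubated ≥48 hr at 37 °C. Readout CellTiter-Glo luminescence.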
# % is set by controls: 0 for no effect and ±100 for the full control effect; potency is the fitted concentration of half-maximal effect; tags give direction and shape of the fitted curve.
SMILES,"activity change, negative = growth inhibition",Potency
Cc1ccc(C)c(C2=NNC(=O)CC2)c1,inactive: -0.548%,–
COc1ccc(/C=C/C(=O)N2CCC(c3nc4ccccc4o3)CC2)cc1,–,"inconclusive: 23.1 µM [inhibitor, partial curve, poor fit]"
COc1cc(/C=C2/S/C(=N/S(=O)(=O)Cc3ccccc3)NC2=O)c([N+](=O)[O-])cc1OC,inactive: -6.14%,–
CCn1cnnc1SCC(=O)c1c(N)n(C2CC2)c(=O)[nH]c1=O,inactive: -5.94%,–
CCN(C(=O)Cn1cnc2c1c(=O)n(C)c(=O)n2C)C1CCCCC1,inactive: 18%,–
CCOc1ccc(C(=O)Nc2ccc(C(=O)OCc3cc(=O)n4nc(CC)sc4n3)cc2)cc1,–,"inconclusive: 29.1 µM [inhibitor, single point]"
Cn1c(=O)oc2cc(S(=O)(=O)N3CCN(Cc4ccc5c(c4)OCO5)CC3)ccc21,inconclusive: -30.3% [inhibitor],–
O=c1c(CCc2ccccc2)nc2cnc(Oc3ccccc3)nc2n1C1CC1,–,"inconclusive: 25.9 µM [inhibitor, partial curve, poor fit]"
CCC(C)n1c(=N)c(C#N)cc2c(=O)n3cc(C)ccc3nc21 (stereo not given),inactive: -2.62%,–
CCOC(=O)Cc1cnc(NC(=O)CSc2nc(C)cc(C)n2)s1,inconclusive: -31.1% [inhibitor],–
COc1ccccc1-n1c(C)nnc1SCC(=O)Nc1cccc(C(C)=O)c1,inactive: -9.55%,–
CCN(C(=O)C1CCN(S(=O)(=O)c2cccc3nonc23)CC1)c1ccccc1,–,"inconclusive: 25.9 µM [inhibitor, single point]"
O=C(NNC(=O)C1C2C=CC(C2)C1C(=O)O)c1ccccc1O (stereo not given),inactive: 11.8%,–
N#Cc1nc(COc2ccccc2Cl)oc1NCc1cccnc1,–,"inconclusive: 16.4 µM [inhibitor, single point]"
COC(=O)c1ccc2nc(NC(=O)CCS(=O)(=O)c3ccccc3)sc2c1,–,active: 9.2 µM
COc1cc(SC)ccc1C(=O)Nc1cccc(S(=O)(=O)NC2=NCCCCC2)c1,–,"inconclusive: 18.4 µM [inhibitor, single point]"
Cc1ccc(S(=O)(=O)N2CCCc3cc(NC(=O)c4ccc(F)c(F)c4)ccc32)cc1,–,"inconclusive: 23.1 µM [inhibitor, single point]"
COc1cccc2cc(C(=O)Nc3ccc(F)cc3)c(=Nc3ccc(C(=O)O)cc3)oc12,–,"inconclusive: 5.17 µM [inhibitor, single point]"
COc1ccc(CCc2nc3ccccc3n2C(CCc2ccccc2)c2nc3ccccc3[nH]2)cc1 (stereo not given),–,"inconclusive: 25.9 µM [inhibitor, single point]"
CCS(=O)(=O)c1nc(S(=O)(=O)c2ccc(C)cc2)c(NCc2ccc(Cl)cc2)s1,–,"inconclusive: 16.4 µM [inhibitor, single point]"
O=C(CNC(=O)c1ccc(Cl)cc1Cl)OCc1nc2ccccc2s1,inconclusive: -34% [inhibitor],–
NC(=O)CCc1nc2cc(C(F)(F)F)ccc2n(Cc2ccccc2)c1=O,–,"inconclusive: 14.6 µM [inhibitor, partial curve]"
O=C(NC1CCCC1)C(=O)c1c[nH]c2ccccc12,inactive: 2.79%,–
O=C(c1ccc(N2CCCC2)c([N+](=O)[O-])c1)N1CCN(S(=O)(=O)c2ccc(Cl)cc2)CC1,–,"inconclusive: 23.1 µM [inhibitor, single point]"

SMILES,"activity change, negative = growth inhibition",Potency
CCOc1ccc(N(CC)S(=O)(=O)N2CCCC(C(=O)Nc3ccc(NC(C)=O)cc3)C2)cc1 (stereo not given),–,"inconclusive: 23.1 µM [inhibitor, partial curve]"
CC(=O)Oc1ccc(C(c2ccc(OC(C)=O)cc2)c2ccccn2)cc1,–,active: 15 µM
O=C(Nc1ccc2c(c1)oc1ccccc12)c1cccnc1,–,"inconclusive: 16.4 µM [inhibitor, single point]"
O=C(COc1ccc2oc3c(c2c1)CCCC3)Nc1ccc(Cl)cc1,–,"inconclusive: 16.4 µM [inhibitor, partial curve]"
COCCN(C(=O)Cn1nnc2ccccc21)C(C(=O)NC1CCCCC1)c1ccc(OC)cc1OC (stereo not given),inactive: -6.61%,–
COC(=O)C(C)Sc1ccc2nnc(-c3cccc(F)c3)n2n1 (stereo not given),–,"inconclusive: 14.1 µM [inhibitor, single point]"
COc1cccc(C(=O)Nc2cc(-c3ccccc3)nn2-c2ccccc2)c1,–,"inconclusive: 29.1 µM [inhibitor, single point]"
Cc1cc(N2O[C@H]3C=C[C@@H]2C3)no1,inactive: -3.95%,–
Cc1ccccc1/C=C\c1nc2ccccc2c(=O)n1Cc1ccccc1,–,"inconclusive: 25.9 µM [inhibitor, single point]"
C[C@H](CO)N1C[C@H](C)[C@@H](CN(C)C(=O)NC2CCCCC2)Oc2c(NS(=O)(=O)c3ccc(F)cc3)cccc2C1=O,–,"inconclusive: 29.1 µM [inhibitor, single point]"
O=C(C1CCCN(S(=O)(=O)c2cccc3nsnc23)C1)N1CCc2ccccc2C1 (stereo not given),–,active: 23.1 µM
Cn1c(N)cc(=O)n(C)c1=S,inactive: -14%,–
COc1ccc(CNC(=O)CSc2cc(=O)n(C)c3ccccc23)cc1,–,active: 16.4 µM
COc1ccc(CCN(C)Cc2ccc(OC)c(OCc3ccccc3)c2)cc1OC,–,active: 23.1 µM
COc1ccccc1Cn1c(CNS(=O)(=O)c2ccc(CC(C)C)cc2)nc2cccnc21,–,active: 13 µM
CCN(CC)S(=O)(=O)c1cccc(C(=O)Oc2cccc(NC(=O)c3cccs3)c2)c1,–,"inconclusive: 29.1 µM [inhibitor, single point]"
O=C(NCc1cccc(F)c1)c1cccc2c1C(=O)c1ccc(N3CCOCC3)cc1S2(=O)=O,–,"inconclusive: 2.59 µM [inhibitor, full curve]"
CCc1cc2c(=O)c(-c3nc4ccccc4n3C)c(C)oc2c(CN2CCCCC2)c1O,–,"inconclusive: 20.6 µM [inhibitor, partial curve, poor fit]"
CCOc1ccc(NC(=O)Cn2cc(C(=O)c3ccc(OCC)cc3)c(=O)c3cc4c(cc32)OCCO4)cc1,–,active: 5.8 µM
O=C(NNC(=O)C1[C@H]2CCCC[C@@H]12)Nc1cccc2ccccc12 (stereo not given in full),–,"inconclusive: 29.1 µM [inhibitor, single point]"
CCC(C(=O)NCCC1=CCCCC1)n1nc(C)c2c(C)n(-c3ccccc3)nc2c1=O (stereo not given),–,active: 25.9 µM
O=C(Nc1ccccc1)C12CC1/C(=N\O)c1ccccc1O2 (stereo not given),–,"inconclusive: 20.6 µM [inhibitor, partial curve]"
COc1ccc(-c2cc3ccccc3oc2=O)cc1NC(=S)NC(=O)c1ccc2c(c1)OCCO2,–,active: 9.2 µM
O=C(O)CCC(=O)c1ccc(C2CCCCCC2)cc1,inactive: -8.35%,–

SMILES,"activity change, negative = growth inhibition",Potency
O=C(Cc1cccs1)Nc1ccc(S(=O)(=O)N2CCCCC2)cc1,–,"inconclusive: 18.4 µM [inhibitor, single point]"
CCOc1cc(CNCc2cccs2)ccc1OCC(=O)NC(C)(C)C,–,"inconclusive: 23.1 µM [inhibitor, single point]"
COc1cccc(NC(=O)CN2C(=O)COc3ccc(S(=O)(=O)N4CCCCCC4)cc32)c1,–,"inconclusive: 20.6 µM [inhibitor, single point] and inconclusive: 18.4 µM [inhibitor, single point]"
COC(=O)Cc1c(C)c2cc3c(c(C)c2oc1=O)OCN(CCc1ccc(F)cc1)C3,–,"inconclusive: 20.6 µM [inhibitor, single point]"
Cc1cccc(-n2c(C)n[nH]c2=S)c1,inactive: -6.65%,–
CCN(CC)c1ccc(NC(=O)c2ccc3c(c2)OCO3)c(C)c1,–,"inconclusive: 25.9 µM [inhibitor, single point]"
N#Cc1cc2c(nc1SCC(O)CS(=O)(=O)Cc1ccccc1)CCCC2 (stereo not given),–,"inconclusive: 5.17 µM [inhibitor, partial curve]"
O=C(NCc1cccnc1)C(=O)C1C(=O)Nc2ccccc21 (stereo not given),inactive: 0.799%,–
COc1ccc(S(=O)(=O)NCc2cccnc2)cc1,inactive: 3.39%,–
COc1ccccc1NC(CC(=O)c1ccccc1)C(=O)OCC(=O)c1ccc(F)cc1 (stereo not given),–,"inconclusive: 29.1 µM [inhibitor, single point]"
COc1cccc(N2C(=O)C(CC(=O)Nc3ccc(F)cc3)N(CCC3=CCCCC3)C2=O)c1 (stereo not given),–,active: 16.4 µM
COc1ccc(COC(=O)c2cccc(S(=O)(=O)N3CCN(C(C)=O)CC3)c2)cc1F,–,"inconclusive: 18.4 µM [inhibitor, single point]"
Cc1sc2c(c1C)CN(CCN1CCOCC1)CN2C(=O)c1ccccc1,inactive: 20.4%,–
O=C(NC1CCCCC1)C1CC(=O)N(c2ccccc2)C1 (stereo not given),inactive: -29%,–
COc1ccc(OC)c(-n2c(SCC(=O)NCc3ccco3)nnc2-c2c[nH]c3ccccc23)c1,–,"inconclusive: 25.9 µM [inhibitor, single point]"
C=CCN(C(=O)CN1CCOCC1)c1nc(C)c(-c2ccccc2)s1,inconclusive: -15.4% [inhibitor],–
O=C(/C=C\c1ccccc1OC(=O)c1ccccc1F)c1cc2ccccc2o1,–,active: 14.6 µM
Cc1ccc(-n2nc3c(c2NC(=O)CC(C)C)CS(=O)(=O)C3)c(C)c1,inactive: -0.726%,–
CC(C)(C)OC(=O)NOCC(=O)N(Cc1ccccc1)CC(O)COc1ccccc1 (stereo not given),–,"inconclusive: 20.6 µM [inhibitor, single point]"
COc1ccc(C)cc1NS(=O)(=O)c1ccc(NC(=O)CN(c2cc([N+](=O)[O-])ccc2C)S(C)(=O)=O)cc1,–,active: 14.6 µM
Cc1ccc(C(O)c2ccc(-n3ccnc3)cc2)cc1 (stereo not given),–,active: 14.6 µM
Cc1cc(-c2ccccc2)nc(SCC(=O)c2cccc([N+](=O)[O-])c2)n1,–,"inconclusive: 23.1 µM [inhibitor, single point]"
